Patent publication US11866509B2, “Humanized antibodies against CEACAM1” (Famewave Ltd., priority 2014, dated 2024)

Experiments:
[1] = tested on: Human melanoma cancer cells (MALME 3M); assay: Cytotoxicity of human TIL cells (TIL14) against melanoma cells, LDH release; type: cell-based; details: for combination index (CI): 0.05-0.8 μg/ml each
Experimental: FIG. 4 represents synergistic effects of anti-CEACAM1 and anti-PD-1 antibodies on the cytotoxicity of human TIL cells against human melanoma cells. TIL cells were incubated with various concentrations of a humanized mAb to human CEACAM1 (dashed black line, sphere marker), a mAb to human PD-1 (solid gray line, rectangular marker) or a combination of both antibodies (solid black line, triangle marker). IFN-γ-treated melanoma cells were added for an overnight incubation. Results represent an average of % cytotoxicity ±SE as determined by classical LDH release assay from triplicate wells per treatment. * P<0.05 paired T-test compared to the monoclonal antibody to human CEACAM1 only.
FIGS. 5A-5B Synergistic effects of anti-CEACAM1 and anti-PD-1 antibodies on Granzyme B levels and the cytotoxicity of human TIL cells against human melanoma cells when anti-PD-1 antibodies are added prior to the addition of anti-CEACAM1 antibodies. Human melanoma cells were grown in the presence of IFN-ã to induce PD-L1 expression. Human TIL cells were incubated with medium only (black), non-specific IgG antibody (white), various concentrations of a monoclonal antibody to human CEACAM1 (vertical lines), a monoclonal antibody to human PD-1 (horizontal lines) or a combination of both antibodies (dots). (FIG. 5A) Results represent an average of % cytotoxicity ±SE as determined by classical LDH release assay from triplicate wells per treatment. * P≤0.05 paired T-test compared to a-PD-1 only. (FIG. 5B) Results represent Granzyme B levels ±SE as determined by commercial Granzyme B ELISA kit from triplicate wells per treatment.
Human melanoma cancer cells (MALME 3M) were grown in the presence of IFN-ã to induce PD-L1 expression. […] The combination index (CI) was calculated to be 0.15. In the same assay, the level of the cytotoxic protein granzyme B that is secreted upon cytotoxic cell activation was evaluated by commercial granzyme B ELISA Kit. […]

[2] = CM-24 serum level in the lung lesion model; type: in vivo, SCID-NOD mice; details: termination day
Experimental: At termination day, a flow cytometry based assay in combination with a QuantiBrite KIT was used in order to determine CEACAM1 receptor occupancy by CM-24 in human TIL isolated from the lungs of the treated mice. […] Examination of CEACAM1 RO values was performed using a flow cytometry based assay using PE conjugated CM-24 antibody and a QuantiBrite Kit (BD) Results represent average±SE of RO values on TIL isolated from the lung of 8-9 mice per treatment group. Data was analyzed using Kaluza software.

[3] = 6 week GLP repeat dose toxicity study; type: in vivo
Experimental: (§1) A 6 week repeat dose study was performed in rhesus monkeys to evaluate the toxicity and toxicokinetics of CM-24. CM-24 was administered via intravenous (IV) infusion (the intended clinical route of administration) once every two weeks for a total of 4 doses (mimicking the intended treatment cycle in oncology patients) at doses representing 2.5× (25 mg/kg) and 10× (100 mg/kg) the projected maximal dose in humans (10 mg/kg). No obvious treatment related adverse reactions, no gross or microscopic pathological findings, and no mortality were observed. Ophthalmoscopy and electrocardiography indicated no findings related to the treatment.

[4] = Toxicokinetics and anti-drug antibody evaluation in the repeat dose study; type: in vivo, rhesus monkeys
Experimental: as §1

[5] = Safe clinical starting dose from MABEL of mouse tumor xenograft models; details: comprising a 10 fold safety factor
Experimental: The safe clinical starting dose for CM-24 based on the MABEL determined from the in vivo experiments in the mouse tumor xenograft models results is in the range of 0.2-1 mg/kg, comprising a 10 fold safety factor.

[6] = tested on: CEACAM1-positive primary cells (lymphocytes, epithelial and endothelial cells); assay: Proliferation rate or viability of primary cells; type: cell-based
Source text: CM-24 enhances the cytotoxic activity of effector cells in the presence of CEACAM1 positive tumor cells and in the context of a specific human leukocyte antigen (HLA)-restricted T cell reaction.

B1: CM-24: back-mutated humanized IgG4 anti human CEACAM1 monoclonal antibody; light chain SEQ ID NO: 52, heavy chain SEQ ID NO: 53 (antibody)
heavy: QVQLVQSGAEVKKPGASVKVSCKASGYAFTNNLIEWVRQAPGQGLEWIGVINPGSGDTNYNEKFKGRVTMTADKSISTAYMELSRLRSDDTAVYYCARGDYYGGFAVDYWGQGTTVTVSSASTKGPSVFPLAPCSRSTSESTAALGCLVKDYFPEPVTVSWNSGALTSGVHTFPAVLQSSGLYSLSSVVTVPSSSLGTKTYTCNVDHKPSNTKVDKRV[letters of human IgG4 Fc with S228P (EU numbers) left out]
light: DIQMTQSPSSLSASVGDRVTITCRTSQDIGNYLNWYQQKPGKAVKLLIYYTSRLHSGVPSRFSGSGSGTDYTLTISSLQPEDIATYFCQQGKSLPRTFGGGTKVEIKRTVAAPSVFIFPPSDEQLKSGTASVVCLLNNFYPREAKVQWKVDNALQSGNSQESVTEQDSKDSTYSLSSTLTLSKADYEKHKVYACEVTHQGLSSPVTKSFNRGEC
toxicity of human TIL cells against human cancer cells ([1]; CM-24 with mAb to human PD-1 (clone E12.2H7), 0.005-0.25 μg/ml of each, vs each monotherapy): significantly increased the toxicity | combination index (CI) ([1]; CM-24 with mAb to human PD-1 (clone E12.2H7), anti-PD-1 added first): 0.15 | combination index (CI) ([1]; CM-24 with mAb to human PD-L1 (clone 29E.2A3), anti-PD-L1 added first): 0.67 | CM-24 serum level ([2]; 3 mg/kg): 0.3 µg/mL | CM-24 serum level ([2]; 6 mg/kg): 48.5 µg/mL | CM-24 serum level ([2]; 10 mg/kg): 111 µg/mL | treatment-related toxicities ([3]; 25 and 100 mg/kg): no treatment-related toxicities at any dose level | No Observed Effect Level (NOEL) ([3]; IV infusion once every two weeks, 4 doses, 25 and 100 mg/kg): 100 mg/kg | human equivalent dose (HED) of the NOEL ([3]; weight-to-weight basis): 100 mg/kg | Cmax and AUC on Day 42 as compared to Day 0 ([4]; IV infusion once every two weeks): slight increase | CM-24 exposure (Cmax, AUC) versus dose ([4]; IV infusion, 25 and 100 mg/kg): dose-proportional increase | anti-CM-24 antibody (ADA) response ([4]; repeated dosing): Only a single animal in Group 2 (25 mg/kg) showed a positive anti-CM-24 antibody response | safe clinical starting dose based on the MABEL [5]: 0.2 to 1 mg/kg | direct effect on proliferation rate or viability [6]: no direct effect
